# Measured values: the supplement of paper PMC7826260
# This is one part of the list. Each Rep nickase domain was tested in vitro on the same pool of single strands (1 h at 37 °C, 3 µM enzyme); the outer parts of the 90-letter strands are left off. Uncut reads are compared with the no-enzyme pool on a log2 scale; the lower, the more was cut; hits are not called. Counts are relative to all reads; where an enzyme cuts many sequences, the uncut ones exceed 0.
# Columns and labels:
# Assay in all cases: uncleaved DNA left, log2 of reads against the no-enzyme library (log2 ratio); higher = less cleavage (more negative = more Rep cleavage of the k-mer); sequences stand for … in CTCGTCCG…ACCGGAGA
# [1] = test system: T1, Rep nickase domain of Muscovy duck circovirus
# T1 sequence (residues 1-111 of Rep, tag left off): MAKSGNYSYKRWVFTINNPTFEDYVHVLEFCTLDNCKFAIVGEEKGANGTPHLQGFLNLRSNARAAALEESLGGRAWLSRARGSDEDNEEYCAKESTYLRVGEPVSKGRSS
# Experimental: (§1)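 A pool of 90-nt single-stranded DNAs with seven random bases just before the constant AC of the nick site (name = the seven bases) was cut by 3 µM recombinant His6-SUMO-tagged Rep nickase domain (300 nM DNA, 50 mM HEPES pH 8.0, 50 mM NaCl, 1 mM MnCl2, 1 h, 37 °C, three replicates). Uncut DNA was amplified and sequenced.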
# [2] = test system: T2, Rep nickase domain of banana bunchy top virus
# T2 sequence (residues 1-94 of Rep, tag left off): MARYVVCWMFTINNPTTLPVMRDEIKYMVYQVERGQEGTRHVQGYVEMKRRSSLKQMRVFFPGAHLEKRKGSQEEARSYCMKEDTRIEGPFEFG
# Experimental: as §1
# [3] = test system: T3, Rep nickase domain of cabbage leaf curl virus
# T3 sequence (residues 1-116 of Rep, tag left off): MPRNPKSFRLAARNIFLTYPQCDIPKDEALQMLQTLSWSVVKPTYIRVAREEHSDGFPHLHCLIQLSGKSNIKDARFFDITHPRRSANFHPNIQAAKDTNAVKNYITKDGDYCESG
# Experimental: as §1
# [4] = test system: T4, Rep nickase domain of chickpea chlorotic dwarf virus
# T4 sequence (residues 1-124 of Rep, tag left off): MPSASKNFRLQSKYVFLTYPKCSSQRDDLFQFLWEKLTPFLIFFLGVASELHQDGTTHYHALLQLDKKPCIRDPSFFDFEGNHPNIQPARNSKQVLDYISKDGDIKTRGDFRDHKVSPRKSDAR
# Experimental: as §1
# [5] = test system: T5, Rep nickase domain of faba bean necrotic yellows virus
# T5 sequence (residues 1-98 of Rep, tag left off): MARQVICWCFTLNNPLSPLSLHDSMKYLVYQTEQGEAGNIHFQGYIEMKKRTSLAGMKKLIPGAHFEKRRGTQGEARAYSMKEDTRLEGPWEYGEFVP
# Experimental: as §1
# [6] = test system: T6, Rep nickase domain of maize striate mosaic virus
# T6 sequence (residues 1-117 of Rep, tag left off): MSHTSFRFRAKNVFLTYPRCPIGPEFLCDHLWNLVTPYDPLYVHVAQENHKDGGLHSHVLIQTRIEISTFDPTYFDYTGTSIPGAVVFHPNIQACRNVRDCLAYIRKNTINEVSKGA
# Experimental: as §1
# [7] = test system: T7, Rep nickase domain of porcine circovirus 2
# T7 sequence (residues 2-116 of Rep, tag left off): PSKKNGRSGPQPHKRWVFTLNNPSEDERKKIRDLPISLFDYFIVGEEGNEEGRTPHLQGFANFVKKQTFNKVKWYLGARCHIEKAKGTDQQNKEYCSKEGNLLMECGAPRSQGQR
# Experimental: as §1
# [8] = test system: T8, Rep nickase domain of tomato yellow leaf curl virus
# T8 sequence (residues 1-136 of Rep, tag left off): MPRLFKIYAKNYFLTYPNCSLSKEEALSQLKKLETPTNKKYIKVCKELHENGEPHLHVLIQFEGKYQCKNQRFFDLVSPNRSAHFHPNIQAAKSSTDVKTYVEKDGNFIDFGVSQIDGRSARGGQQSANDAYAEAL
# Experimental: as §1
# [9] = test system: T9, Rep nickase domain of wheat dwarf virus
# T9 sequence (residues 1-137 of Rep, tag left off): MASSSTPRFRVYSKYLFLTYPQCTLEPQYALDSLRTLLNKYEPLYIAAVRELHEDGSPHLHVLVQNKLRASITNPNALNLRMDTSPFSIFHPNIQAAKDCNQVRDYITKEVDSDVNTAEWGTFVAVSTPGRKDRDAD
# Experimental: as §1
Sequence,uncleaved DNA left (log2) [1],uncleaved DNA left (log2) [2],uncleaved DNA left (log2) [3],uncleaved DNA left (log2) [4],uncleaved DNA left (log2) [5],uncleaved DNA left (log2) [6],uncleaved DNA left (log2) [7],uncleaved DNA left (log2) [8],uncleaved DNA left (log2) [9]
GGAGGAG,0.0655,0.0271,0.323,0.948,-0.0267,0.658,0.197,0.0596,0.0532
CACGGTA,0.0245,-0.165,0.0594,-0.454,-0.184,0.015,-0.06,-0.149,-0.0502
GCTTGAG,0.0881,0.0607,-0.559,-0.118,0.0353,-0.823,0.168,0.0719,0.0145
ACGCACT,-0.116,-0.15,-0.324,-1.72,-0.068,-0.671,-0.183,-0.217,-0.159
ACGCGCC,-0.138,-0.291,-0.58,-0.77,-0.0695,-0.95,-0.0983,-0.228,-0.276
ACCCACG,-0.075,0.0313,-0.653,0.631,-0.0144,-0.44,0.0451,-0.0392,-0.0318
CGCCGCA,0.0259,-0.0117,-0.0237,0.0228,-0.0669,-0.0519,0.0193,0.052,0.0768
TATTCCT,-3.94,-3.7,-1.31,-3.06,-0.232,-0.556,-3.61,-0.126,-0.431
CTCTGGC,0.0171,0.0315,-0.247,-0.527,0.0596,-0.939,0.0915,0.024,-0.0619
CATCTGG,-0.0631,-0.054,-0.184,-0.142,-0.00619,-0.825,0.0418,-0.105,-0.082
GTGCACT,-0.0223,0.0834,0.36,0.951,-0.00993,1.7,0.121,0.0719,0.119
CCTCGAC,0.0853,0.0857,0.0555,-0.596,0.0605,-0.589,0.0828,-0.0383,0.12
GTCGCCC,-0.155,0.0151,0.213,0.617,-0.162,1.39,-0.0258,-0.099,0.0124
AAGGTCG,-0.149,-0.103,-0.898,-0.524,-0.104,-1.03,0.000775,-0.0858,-0.212
CTCCAAT,-0.0176,0.0133,0.22,-0.477,0.107,-0.412,-0.149,-0.0524,0.0711
CAAGCAA,-0.175,0.0678,-0.0159,0.0963,0.0125,-0.323,0.114,-0.175,0.0377
GGGCTAG,0.172,0.183,0.987,1.97,0.19,2.19,0.39,0.228,0.222
GTCATAT,0.0317,0.0597,0.319,0.957,-0.0394,1.63,0.0649,0.0476,0.147
AACTAGT,-3.6,-2.78,-0.668,-1.92,-0.03,-1.03,-3.99,-0.0026,-0.127
TCCTACA,0.0209,0.0298,-0.239,-2.05,0.11,-0.117,-0.373,0.0889,-0.286

Sequence,uncleaved DNA left (log2) [1],uncleaved DNA left (log2) [2],uncleaved DNA left (log2) [3],uncleaved DNA left (log2) [4],uncleaved DNA left (log2) [5],uncleaved DNA left (log2) [6],uncleaved DNA left (log2) [7],uncleaved DNA left (log2) [8],uncleaved DNA left (log2) [9]
CTCTGTC,0.0968,-0.0528,0.0019,-0.0531,0.08,-0.626,0.121,0.198,0.214
AACATGT,-0.0133,0.0231,-0.292,-0.933,0.0927,-0.843,-0.289,0.0402,0.0739
ATGTCCT,-0.374,-0.16,-0.204,-1.9,-0.124,-0.323,-3.2,-0.0486,-0.132
GCCAACC,-0.182,-0.035,0.0432,-0.658,-0.182,-0.0389,-0.409,-0.148,-0.0253
TGGATAA,0.0327,0.213,0.469,1.28,-0.0464,1.51,0.212,0.103,0.177
AGAATGG,0.0717,0.0744,-0.0643,0.145,0.0507,-0.684,0.0798,-0.0548,0.0593
CAAAAAC,-0.175,-0.0344,-0.248,-0.569,0.00919,-0.875,0.0292,-0.18,-0.0971
ATTTTGC,0.0711,-0.0421,-0.686,-0.0353,0.0974,-1.03,0.175,0.121,-0.027
ACTGTCT,-0.0272,-0.0691,-0.232,-1.08,-0.046,-0.196,-0.329,-0.0768,-0.0425
ACAGGAT,0.099,0.125,0.271,1.64,0.178,1.9,0.226,-0.0937,0.13
ACCTGAC,-0.0875,-0.242,-0.172,0.246,-0.176,-0.28,-0.0858,-0.117,-0.148
ATATACC,-0.0636,-0.0342,-0.161,-1.08,-0.0592,-0.6,-0.705,-0.126,0.0486
CAAGGCG,0.0797,0.067,-0.663,0.297,0.128,-0.488,0.265,0.0923,-0.0646
TGCAGCT,0.0142,-0.0667,-0.346,-1.09,-0.0103,-1.04,-0.0407,-0.0242,-0.128
CTGGAAT,0.189,0.114,0.245,1.29,-0.0493,1.52,0.114,0.177,0.204
TACTACG,-0.0177,0.0105,-0.952,-1.39,0.0979,-1.26,-0.922,0.0595,-0.0333
GACCCAT,0.113,-0.032,0.463,-0.0898,-0.00496,1.24,-0.0665,0.103,0.0705
ATGCCTA,-0.0716,-0.122,-0.14,-0.854,-0.000472,-0.624,-0.277,-0.0752,-0.0939
GGAGGGG,0.104,-0.0427,0.537,0.839,-0.183,1.07,0.256,0.0734,-0.0833
ATTGGAT,0.0228,-0.0254,0.293,1.67,0.0343,1.89,0.118,-0.211,0.102

Sequence,uncleaved DNA left (log2) [1],uncleaved DNA left (log2) [2],uncleaved DNA left (log2) [3],uncleaved DNA left (log2) [4],uncleaved DNA left (log2) [5],uncleaved DNA left (log2) [6],uncleaved DNA left (log2) [7],uncleaved DNA left (log2) [8],uncleaved DNA left (log2) [9]
CTCCCAC,-0.0784,0.0615,0.0282,-0.549,0.0411,-0.454,-0.0336,0.048,-0.0315
CGTATAC,0.0891,-0.018,0.00448,-0.524,0.0558,-0.393,0.0273,-8.98e-05,-0.00952
TCAAGAT,0.1,0.136,0.23,0.835,0.127,1.48,0.189,-0.0491,0.123
GAAGCGT,0.00847,-0.00824,-0.644,-0.517,0.104,-0.625,0.191,0.112,-0.0228
AAAACTC,0.0389,-0.0991,-0.5,-1.56,0.0248,-0.633,-0.0313,0.000121,-0.205
GAAGCCG,0.0565,-0.0222,-0.726,-0.423,0.0879,-0.827,0.106,-0.0103,-0.0748
TGCATGC,0.186,0.0791,-0.0636,-0.108,-0.0283,-0.764,0.295,0.155,-0.0151
CGTAAGT,0.0619,0.109,0.0226,-0.215,0.103,-0.661,-0.108,0.125,-0.0332
CCGTAGA,-0.0212,0.0806,0.227,0.276,0.0156,-0.503,0.0431,0.0706,0.143
TGGTCCG,0.07,0.0583,-0.816,-0.0889,0.0516,-0.732,0.0801,0.111,-0.109
CTAGGTC,-0.0248,-0.033,0.291,0.723,-0.0134,0.828,-0.18,0.0303,0.00131
CGTCACG,0.0996,0.0662,-0.736,-0.342,-0.0406,-1.12,0.0703,0.00821,-0.0723
GATAACG,0.154,0.0352,-0.753,-0.488,0.151,-0.919,0.212,0.0457,-0.095
TGAGGAT,0.0028,0.113,0.39,1.66,-0.0496,1.93,0.201,-0.0565,0.0553
GTGGTTA,0.0535,0.0354,0.365,0.843,-0.146,1.81,0.0256,-0.0145,-0.0598
ATCACCT,-0.0958,-0.0859,-0.123,-2.05,-0.0514,-0.223,-0.226,-0.17,-0.0204
GACTGTA,0.0628,-0.0011,0.0729,0.302,0.077,1.25,-2.14,0.0125,0.0945
ATGAGAT,0.0936,0.0531,0.313,1.68,0.101,1.8,0.208,-0.0354,0.158
AATGTAA,0.0972,0.002,-0.214,-0.374,0.0479,-0.437,-0.0415,-0.0486,-0.0125
CCACAAA,0.0102,-0.0578,-0.0256,-0.41,-0.0169,-0.577,-0.0113,-0.067,-0.117
